According to patent US20170190774A1 (REPROPHARM, published 2017):

Assays:
ovine FSH (oFSH) = ovine FSH (oFSH) (ovine); test: ELISA saturation binding, one site-specific binding fit in GraphPad Prism (estimate)
Method: (§1) The specificity of the antibodies and of the scFv thereof was studied by the ELISA technique. Each hormone evaluated was prepared at the concentration of 10 μg/ml in a 0.1M sodium carbonate buffer, pH 9.6, and distributed in a proportion of 100 μl per well on an ELISA plate. The adsorption time was 18 hours at +4° C. After five washes, the wells were treated with 100 μl of PBS supplemented with 0.1% Tween and 1% BSA for 45 minutes at 37° C., then each antibody or scFv was distributed in a proportion of 100 μl/well and incubated for one hour at 37° C. On each hormone evaluated, the antibodies and the scFvs were distributed at various concentrations according to a range of 10 to 250 μg/ml for the antibodies and of 10 to 150 or 200 μg/ml for the scFvs.

ovine LH (oLH) [1] = target: ovine LH (oLH) (ovine); test: as above
Method: as §1

bovine LH (bLH) [2] = target: bovine LH (bLH) (bovine); test: as above
Method: as §1

[3] = target: T1, equine chorionic gonadotropin (eCG) (equine); test: as above
T1 construct: mature; Alpha/beta dimer
Method: as §1

porcine LH (pLH) [4] = target: porcine LH (pLH) (porcine); test: as above
Method: as §1

ovine LH (oLH) [5] = target: ovine LH (oLH) (ovine); test: ELISA, hormone adsorbed on the plate, scFv titrated, anti-His HRP; (A/B)x100 relative to oFSH
Method: as §1
(§2) After five washes, a secondary antibody coupled to peroxidase (HRP) was distributed in a proportion of 100 μl/well and incubated for one hour at 37° C. […] For the scFvs, an anti-His Tag HRP (Ref. R93125 Life Technologies, France) was used. […] After the reaction had been stopped with 1M H₂SO₄ (50 μl/well), the strength of the colored reaction (optical density) was measured using a spectrophotometer for ELISA plates.
(§3) The percentage of cross reaction was calculated conventionally by comparing the dose-response curves obtained with the concentration range of the antibody or of the scFv.

bovine LH (bLH) [6] = target: bovine LH (bLH) (bovine); test: as above
Method: as §1, §2, §3

porcine LH (pLH) [7] = target: porcine LH (pLH) (porcine); test: as above
Method: as §1, §2, §3

- Kd (ovine FSH (oFSH)): 540 nM
- Kd (ovine LH (oLH) [1]): 1950 nM
- Kd (bovine LH (bLH) [2]): 2430 nM
- Kd (porcine LH (pLH) [4]): 2470 nM
- cross reaction (ovine LH (oLH) [5]): 25%
- cross reaction (bovine LH (bLH) [6]): 33%
- cross reaction (porcine LH (pLH) [7]): 29%
B1: CA5 scFv (scFv)
scFv: QVQLQQSGGGLVQPGGSLRLSCATSGFTFSDFYMEWVRQPPGKRLEWIAASRNKAKDYTTEYSASVKGRFIVSRDTSQSILYLQMNALRAEDTAIYFCARDARFAYWGQGTLVTVSAGGGGSGGGGSGGGGSDIQMTQTPSSLAVSVGEEITMS[about 80 residues omitted]FGGGTKLEIKHHHHHH
notes: VH-(Gly4Ser)3-VL-His6, made in the E. coli periplasm; also called scFv derived from the CA5 antibody
- Kd [3]: 4070 nM
